# Where two headings read alike, the source gives them in different places.
# Test system: strains expressing serine carbapemenases (such as KPC)
# Assay: organism not typed
# Conditions: biapenem alone
smiles,measurement,setting,value
C[C@@H](O)[C@H]1C(=O)N2C(C(=O)[O-])=C(SC3Cn4cnc[n+]4C3)[C@H](C)[C@H]12 (stereo partly shown) [Biapenem],MIC,"read-out: Biapenem MIC, strain EC1007 KPC-3",4 µg/mL
same,MIC,"read-out: Biapenem MIC, strain ECL1004 NMC-A",8 µg/mL
same,MIC,"read-out: Biapenem MIC, strain KP1004 KPC-2",> 8 µg/mL
same,MIC,"read-out: Biapenem MIC, strain KP1008 KPC-2",8 µg/mL

# From patent publication US11090319B2, “Therapeutic uses of pharmaceutical compositions comprising cyclic boronic acid ester derivatives” (Melinta Subsidiary Corp., priority 2010, dated 2021)
